From the supplement of paper PMC6531468
The other results are listed elsewhere or left out. These are enrichments in a pooled selection; single values are uncertain. Scores sum up all selected molecules that hold the word; the word was not tested alone.

What follows are sequences tested on IMP3 RRM1-2 (assay: 6-mer SELEX enrichment z-score vs GST control; IMP3 is the RNA-binding protein IGF2BP3; higher = more enriched by binding). Settings: construct: RRM1-2 (1-163); SELEX round: R2.
Method: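 SELEX-seq with GST-tagged IMP3 RRM1-2 (Met1-Asn163) and an N40 RNA pool, round 2. 6-mer enrichment z-score normalised to GST SELEX. RNA written as DNA (T = U).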

Sequence of IMP3 RRM1-2 (chain, as listed by the source): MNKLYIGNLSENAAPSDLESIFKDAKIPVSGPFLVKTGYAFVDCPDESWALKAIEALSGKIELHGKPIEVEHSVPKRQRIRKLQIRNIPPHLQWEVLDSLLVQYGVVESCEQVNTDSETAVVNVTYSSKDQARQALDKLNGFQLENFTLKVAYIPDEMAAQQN

Row | Sequence | 6-mer SELEX enrichment z-score
1 | CTCTGA | -0.221
2 | TGGGTT | 0.523
3 | CCGTCC | -0.308
4 | TGATCC | -0.417
5 | CCCAAA | -2.12
6 | GGTGAG | -0.139
7 | TTATAA | -0.189
8 | GTTTTG | 0.32
9 | ACCTTT | -0.173
10 | CGGGGG | -0.059
11 | GAATGC | -0.775
12 | TAAAGT | -0.51
13 | TCCAAA | -0.892
14 | GCATTG | 0.482
15 | TCAGTA | 0.602
16 | CCATTA | 0.539
17 | GCGACT | -0.211
18 | AGAGAC | -0.986
19 | GTTTCA | 0.566
20 | AATTCT | 0.056

Row | Sequence | 6-mer SELEX enrichment z-score
21 | ATGTTT | 0.129
22 | AGCTTG | 0.024
23 | AAGATA | -1.27
24 | GAGTAT | -0.078
25 | TACTGC | 0.054
26 | TAGGGA | -0.111
27 | CAGTTA | 0.228
28 | CAGATA | 0.199
29 | ACCATC | 1.33
30 | AACTGT | -0.624
31 | CTCACT | 0.884
32 | ATCTGG | 0.348
33 | AAACAT | 2.28
34 | AACTGG | -0.525
35 | AAGGCG | -0.007
36 | CGCCCG | -0.543
37 | TTGCAC | 0.269
38 | TCTGTA | 0.174
39 | ACCCAG | -0.966
40 | GTGCGA | -0.173
